The text below walks through data of the RNAGym collection of RNA variant scans (doi:10.7554/elife.90254).

To fix the notation:
B1: LINE1-mini (parent)
chain: GGCAGAGCUCAACACAGCGUGGCAAAGUGGCUGUGGCUAGACUGCC

The source gives no read counts; variants with many changes may rest on few reads.

In this data set the parent is B1. Description: self-cleavage, relative activity (ratio to wild type); higher = more cleavage; in vitro, sequencing; the parent is a self-cleaving ribozyme.
With C8A C10A A26C U28A C42U, the self-cleavage stood at 0.01.

As for C8A G17A U38A U43A, the self-cleavage was 0.17.

With C8A C31U G35A C45A, the self-cleavage was found to be 0.13.

For the variant C8A C15A C23G G44A, the self-cleavage was found to be 0.21.

With C8A A14C A39U, the self-cleavage was found to be 0.04.

With C8A G19C U20G A25C A26G C31G, the self-cleavage was determined as 0.01.

Regarding C8A G21U G22C C31G, the self-cleavage came out at 0.09.

On to C8A A16C G36C, for which the self-cleavage came out at 0.19.

C8A A14G C15U: the self-cleavage was 0.16.

In the case of C8A C13G A16U G21C U34A, the self-cleavage was found to be 0.29.

For C8A A11C C45U, the self-cleavage is 0.03.

On to C8A G36U G44A, for which the self-cleavage was found to be 0.24.

Turning to C8A G36U G44U, the self-cleavage stood at 0.28.

As for C8A C23G G27U G33C, the self-cleavage turned out to be 0.04.

As for C8A G21U C42G U43A, the self-cleavage was 0.1.

As to C8A C10G C15U A25G A26U, the self-cleavage amounted to 0.02.

On to C8A G19U A26G U38G, for which the self-cleavage turned out to be 0.

As to C8A A11U G27U U34C U38C, the self-cleavage was determined as 0.01.

As for C8A A11C G27A, the self-cleavage was determined as 0.07.

C8A G30U U43C: the self-cleavage was 0.33.

On to C8A A25U C45G, for which the self-cleavage is 1.09.

Consider C8A C10U A25U, for which the self-cleavage stood at 0.04.

For the variant C8A C18U C37G, the self-cleavage was 0.12.

Take C8A G33C G35C: the self-cleavage was 0.23.

On to C8A A14G C18G, for which the self-cleavage turned out to be 0.05.

With C8A C31U A39G, the self-cleavage was determined as 0.16.

As for G7U U28G A39U C42G C45U, the self-cleavage came to 0.01.

Turning to C8A G17C G33U, the self-cleavage was determined as 0.23.

Turning to C8A C42A C46A, the self-cleavage turned out to be 0.11.

For C8A A16C U32G U43A, the self-cleavage came out at 0.

Turning to C8A G33A G35C, the self-cleavage stood at 0.03.

As for C8A A16C G44C, the self-cleavage worked out at 0.06.

Consider C8A C31G G40U, for which the self-cleavage was 0.21.

As to C8A A14C U20G G22A, the self-cleavage stood at 0.09.

As to C8A A12U G27A, the self-cleavage came out at 0.14.

With C8A A24G G30A, the self-cleavage is 1.09.

Take C8A A25U C42U: the self-cleavage stood at 0.24.

Regarding C8A C18A G21C G33U, the self-cleavage stood at 0.09.

On to C8A A11G G21A, for which the self-cleavage came to 0.06.

In the case of C8A G27C A39U, the self-cleavage was determined as 0.2.

For C8A C10A G36U, the self-cleavage is 0.01.

Turning to C8A A24U A25C U38C U43G, the self-cleavage was 0.04.

Take C8A G19A C42U: the self-cleavage was determined as 0.08.

Regarding C8A C15U C18U G30A C31U, the self-cleavage is 0.19.

For the variant C8A G22A G44U, the self-cleavage was found to be 0.05.

With C8A C13A A25G G33U G44A, the self-cleavage was determined as 0.7.

Regarding C8A C10A A12U U28C C45A, the self-cleavage came out at 0.02.

Consider C8A A12C G36C, for which the self-cleavage is 0.04.

C8A A16C A41G: the self-cleavage amounted to 0.05.

C8A A11G C18A G29C C31U G40U: the self-cleavage came out at 0.

On to C8A C13U A14U A16U U20G A24G, for which the self-cleavage was determined as 0.08.

Take C8A C13A C15U: the self-cleavage was determined as 0.56.

As for C8A A16U A26G C31G U38A, the self-cleavage worked out at 0.02.

With C8A G33U C46G, the self-cleavage is 0.13.

As for C8A A24U U32C U34A G36U C46U, the self-cleavage is 0.25.

As to C8A C10U G35C, the self-cleavage came to 0.04.

As for C8A G30U A39G G40A, the self-cleavage was found to be 0.01.

Consider C8A A16G G33U, for which the self-cleavage is 0.01.

Turning to C8A C23A C31G U38C, the self-cleavage amounted to 0.17.

Take C8A G22A A26G U38C: the self-cleavage stood at 0.12.

In the case of C8A G40U A41G, the self-cleavage was determined as 0.22.

As for C8A C15U A16C U28A, the self-cleavage stood at 0.01.

C8A C18U G27U: the self-cleavage was found to be 0.28.

With C8A C10A C18U A26G C37U, the self-cleavage came to 0.02.

For C8A C10A A11G A12G A39C, the self-cleavage worked out at 0.

As for C8A G30U A41U, the self-cleavage came out at 0.37.

As to C8A A16G A25G G29U, the self-cleavage stood at 0.02.

Regarding C8A C15A C31U, the self-cleavage was 0.23.

As to C8A C15U G22U, the self-cleavage came out at 0.15.

As for C8A G19U A39G G44C, the self-cleavage stood at 0.02.

As for C8A A14G G22A C46A, the self-cleavage was 0.14.

C8A C15U G36C: the self-cleavage came to 0.19.

Consider C8A A14U G27A, for which the self-cleavage amounted to 0.23.

For the variant C8A C18U C23A G36A A41U, the self-cleavage stood at 0.4.

As for C8A A14G G19C G29A, the self-cleavage came out at 0.42.

C8A A11U G22A: the self-cleavage was 0.05.

On to C8A A11U C23A A26G G29C, for which the self-cleavage stood at 0.01.

With C8A C31G U32A, the self-cleavage amounted to 0.15.

For the variant C8A C15U G22C G29U, the self-cleavage came to 0.34.

For the variant C8A G33A U34C, the self-cleavage came to 0.09.

Consider C8A G17C C31U, for which the self-cleavage is 0.07.

Regarding C8A C10G A16C G27A U32G, the self-cleavage was found to be 0.

C8A G22C A25U A26U G35U: the self-cleavage came out at 0.04.

On to C8A G19C C46A, for which the self-cleavage was 0.23.

As for C8A C10A C18A U32C, the self-cleavage came to 0.01.

For C8A A12G G40A U43C, the self-cleavage amounted to 0.07.

For the variant C8A C23A U34A C37A, the self-cleavage stood at 0.03.

On to C8A A11G G30A, for which the self-cleavage is 0.01.

Consider C8A A24G G33A G44A C45A, for which the self-cleavage worked out at 0.61.

As to C8A C10A C23U, the self-cleavage is 0.05.

With C8A C23A G27U, the self-cleavage turned out to be 0.18.

With C8A A14U G21A A24G A26U U38G A41C, the self-cleavage stood at 0.02.

For C8A C13G G40U, the self-cleavage amounted to 0.03.

For C8A C10A C18A G29C U34C, the self-cleavage was determined as 0.02.

Turning to C8A C13U C18A, the self-cleavage amounted to 0.17.

Turning to C8A C10A C46A, the self-cleavage worked out at 0.04.

With C8A C18A G36C, the self-cleavage was 0.07.

Take C8A A14C G19C U43A: the self-cleavage is 0.03.

With C8A A14U G40C C46G, the self-cleavage was 0.05.

C8A G22C C23A: the self-cleavage stood at 0.27.

For C8A C13U A24U A26G A39G, the self-cleavage is 0.06.

Turning to C8A A11C A12C C18G, the self-cleavage was found to be 0.

Consider C8A G17C C23A U34C, for which the self-cleavage stood at 0.09.

For C8A G17U A26U G35U, the self-cleavage came to 0.18.

As for C8A C10A C23U G33A U43G, the self-cleavage was 0.04.

Take C8A G21U C31G U34G: the self-cleavage came to 0.04.

Regarding C8A G30U C31A A41U, the self-cleavage came out at 0.68.

With C8A G19C G44A, the self-cleavage amounted to 0.11.

As for C8A A16C C45U, the self-cleavage turned out to be 0.6.

Take C8A C10A U20C A25U A26C G35U A41U: the self-cleavage came to 0.

As to C8A C10U C15U G30A C37G, the self-cleavage came out at 0.09.

Turning to C8A G21C A24C U28A, the self-cleavage was determined as 0.07.

C8A A12U G36A: the self-cleavage was found to be 0.02.

Turning to C8A G17C G40U C42A G44U, the self-cleavage is 0.07.

C8A G29U C37A: the self-cleavage was found to be 0.06.

With C8A C23G A25C A26C G33U, the self-cleavage is 0.04.

Take C8A G27C G44A: the self-cleavage was 0.13.

As to C8A C13U G21U G36C G40C, the self-cleavage was determined as 0.56.

Consider C8A C31G G33U, for which the self-cleavage was found to be 0.04.

Turning to C8A C15A C37U C45A, the self-cleavage was 0.41.

On to C8A A12G U38A, for which the self-cleavage was 0.31.

On to C8A G27U U28G, for which the self-cleavage amounted to 0.07.

C8A C15G U38G: the self-cleavage is 0.02.

Regarding C8A C13U G21U, the self-cleavage was determined as 0.13.

C8A G29C G40U C42A U43A: the self-cleavage came out at 0.03.

Turning to C8A A11U C13U, the self-cleavage was found to be 0.04.

With C8A C10G G17U C18A A26U G36C C45U, the self-cleavage is 0.01.

On to C8A A16C U20A, for which the self-cleavage worked out at 0.1.

In the case of G7U U28G U32G, the self-cleavage is 0.1.

Take C8A C31U G33A C37A C46A: the self-cleavage is 0.08.

In the case of C8A A26U G36U, the self-cleavage was 0.03.

For the variant C8A C10U A16U U20G, the self-cleavage came to 0.13.

Take C8A A16C C23U: the self-cleavage worked out at 0.85.

Regarding C8A C13G A16G G21A G40U U43C, the self-cleavage stood at 0.03.

On to C8A G29U U32G, for which the self-cleavage is 0.96.

For C8A C18U G21U G35C A39G U43A, the self-cleavage was found to be 0.02.

C8A G19C C23A G36A: the self-cleavage was determined as 0.1.

For the variant C8A A14C G40C C46G, the self-cleavage came to 0.14.

For the variant C8A A12U U20G G35A C46G, the self-cleavage worked out at 0.12.

As to C8A A11U U38A C46G, the self-cleavage is 0.01.

For the variant C8A C42U C46U, the self-cleavage turned out to be 0.4.

For C8A C10G A12G G21U G36U A41U G44C C46A, the self-cleavage worked out at 0.

Turning to C8A G22C G30U C45A, the self-cleavage is 0.2.

On to C8A G17A C23G G27C A41C C45A, for which the self-cleavage is 0.05.

C8A A16G U38C: the self-cleavage was determined as 0.04.

With C8A A11U G29C, the self-cleavage stood at 0.01.

Turning to C8A G33U G40C, the self-cleavage came out at 0.24.

C8A C15G G22C A39U: the self-cleavage worked out at 0.04.

In the case of C8A A11C A41C C42G, the self-cleavage came to 0.03.

For the variant C8A C31U C37G, the self-cleavage was found to be 0.48.

Take C8A A26U G27U U43A: the self-cleavage is 0.16.

Turning to C8A G19A C23U, the self-cleavage was determined as 0.28.

Take C8A C18G G35U G44U: the self-cleavage was determined as 0.14.

As to C8A G21U G29A G30A, the self-cleavage amounted to 1.45.

For C8A A12C A16U C42G, the self-cleavage stood at 0.1.

Regarding C8A G22C C23G G40A C45U, the self-cleavage came out at 0.06.

Regarding C8A A14G G36U, the self-cleavage was 0.06.

On to C8A G19U U34A A39C, for which the self-cleavage was 0.2.

Take G7U U28G C46A: the self-cleavage was 0.02.

In the case of C8A G22C G27A C37G, the self-cleavage was 0.05.

Take C8A G19U G27A U28C C31G A41C: the self-cleavage worked out at 0.03.

Turning to G7U U28G U38A G40U, the self-cleavage is 0.12.

On to C8A C23A U28G U38A, for which the self-cleavage was determined as 0.03.

Take C8A G27C C45G: the self-cleavage was 0.06.

As to C8A A14U G21U C37U, the self-cleavage was 0.03.

Turning to C8A G29A G33U, the self-cleavage stood at 0.05.

With C8A A11G U28A, the self-cleavage stood at 0.04.
